# Data: the supplement of paper PMC8512760
# The list shows a part of the results. Many values rest on one well or one pass, so single values are uncertain.
# Key:
# Assay in all cases: cell viability relative to vehicle (% of vehicle); basal-like triple-negative breast cancer lines; higher = less cytotoxic
# Settings in all cases: 10 µM; 72 h
# HCC-1143 = tested on: HCC-1143
# HCC-1187 = tested on: HCC-1187
# MDA-468 = tested on: MDA-468
# SUM-149 = tested on: SUM-149
# 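Note: stably firefly luciferase-GFP labeled cells in 96-well plates, viability read as luciferase photon flux after d-luciferin addition, treated wells normalized to vehicle wells, single-dose high-throughput screen.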
Structure (SMILES),cell viability (HCC-1143),cell viability (HCC-1187),cell viability (MDA-468),cell viability (SUM-149)
CCOC(=O)C(CCc1ccccc1)NC1CCc2ccccc2N(CC(=O)O)C1=O.Cl (stereo unspecified) [Benazepril HCl],97.4,123,101,107
Cl.O=C(Nc1ccccc1)OCC(CN1CCCCC1)OC(=O)Nc1ccccc1 (stereo unspecified) [Diperodon HCl],93,103,110,127
COc1cc2nc(N3CCN(C(=O)C4COc5ccccc5O4)CC3)nc(N)c2cc1OC.CS(=O)(=O)O (stereo unspecified) [Doxazosin Mesylate],106,99.5,103,91
CCCCCCOC(=O)N=C(N)c1ccc(NCc2nc3cc(C(=O)N(CCC(=O)OCC)c4ccccn4)ccc3n2C)cc1.CS(=O)(=O)O [Dabigatran etexilate mesylate],94.8,114,89.1,134
Cl.c1ccc2c(CC3=NCCN3)cccc2c1 [Naphazoline HCl],79.4,111,99.9,92.3
NCC(O)c1ccc(O)c(O)c1.O.O=C(O)C(O)C(O)C(=O)O (stereo unspecified) [Noradrenaline bitartrate monohydrate],93.1,99.1,176,116
COc1ccc2c(c1)c(CC(=O)OCC(=O)O)c(C)n2C(=O)c1ccc(Cl)cc1 [Acemetacin],84.7,72.2,94,110
CC(C)NCC(O)c1ccc(O)c(O)c1.Cl (stereo unspecified) [Isoprenaline HCl],101,101,144,89.8
CCC(=C(CC)c1ccc(O)cc1)c1ccc(O)cc1 [Diethylstilbestrol],71.1,85.8,51.3,119
COC1=C(OC)C(=O)C(CCCCCCCCCCO)=C(C)C1=O [Idebenone],72.3,93.7,107,103
C#CC1(OC(C)=O)CCC2C3CCC4=CC(OC(C)=O)CCC4C3CCC21C (stereo unspecified) [Ethynodiol diacetate],73.7,94.8,91.9,90.1
"Nc1ccccc1NC(=O)c1ccc(CNC(=O)OCc2cccnc2)cc1 [Entinostat (MS-275,SNDX-275)]",108,37.7,53.5,16.2
CCCCCCCCCCCCCCCC(=O)OCC=C(C)C=CC=C(C)C=CC1=C(C)CCCC1(C)C [Retinyl (Vitamin A) Palmitate],70.2,92,113,106
Nc1nc(=O)c2c(CCc3ccc(C(=O)NC(CCC(=O)O)C(=O)O)cc3)c[nH]c2[nH]1.O.[Na+] (stereo unspecified) [Pemetrexed disodium hemipenta hydrate],80.1,88.4,71.6,144
Cc1ccc(C)c(OCCCC(C)(C)C(=O)O)c1 [Gemfibrozil],110,143,151,142
CC(=O)OCC(=O)C1CCC2C3CCC4=CC(=O)CCC4(C)C3CCC12C (stereo unspecified) [Deoxycorticosterone acetate],115,132,160,108
CCN(CC)CCOCCOC(=O)C(CC)(CC)c1ccccc1.O=C(O)CC(O)(CC(=O)O)C(=O)O [Oxeladin Citrate],73.5,116,113,95.2
CNS(=O)(=O)CCc1ccc2[nH]cc(C3CCN(C)CC3)c2c1.Cl [Naratriptan],75.2,92.7,85,75.3
CCCS(=O)c1ccc2nc(NC(=O)OC)[nH]c2c1 (stereo unspecified) [Albendazole Oxide],77,53.8,117,168
Cc1cccc(C)c1OCC(=O)NC(Cc1ccccc1)C(O)CC(Cc1ccccc1)NC(=O)C(C(C)C)N1CCCNC1=O (stereo unspecified) [Lopinavir],79.4,108,93.5,97.4
O=C(NS(=O)(=O)c1ccc(Br)s1)c1ccc(Cl)cc1Cl [Tasisulam],66.4,81.2,116,117
Clc1ccc(C(Cn2ccnc2)OCc2c(Cl)cccc2Cl)c(Cl)c1.O=[N+]([O-])O (stereo unspecified) [Isoconazole nitrate],122,108,98.4,105
CCC1OC(=O)C(C)C(OC2CC(C)(OC)C(O)C(C)O2)C(C)C(OC2OC(C)CC(N(C)C)C2O)C(C)(O)CC(C)CN(C)C(C)C(O)C1(C)O (stereo unspecified) [Azithromycin],118,118,118,125
C[N+]1(C)C2CCC1CC(OC(=O)C(O)c1ccccc1)C2.[Br-] (stereo unspecified) [Homatropine Methylbromide],74.2,79.6,112,97
C1CNCCN1.C[C@@]12CC[C@H]3c4ccc(OS(=O)(=O)O)cc4CC[C@H]3[C@H]1CCC2=O [Estropipate],79.8,94.1,126,129

Structure (SMILES),cell viability (HCC-1143),cell viability (HCC-1187),cell viability (MDA-468),cell viability (SUM-149)
CC(=O)OCC(=O)NCCCOc1cccc(CN2CCCCC2)c1.Cl [Roxatidine Acetate HCl],115,119,111,130
CC(NCCCc1cccc(C(F)(F)F)c1)c1cccc2ccccc12.Cl (stereo unspecified) [Cinacalcet HCl],83.2,90.7,102,106
Clc1ccc(CCC(Cn2ccnc2)Sc2c(Cl)cccc2Cl)cc1.O=[N+]([O-])O (stereo unspecified) [Butoconazole nitrate],117,117,133,148
CCN(CC)CC(=O)Nc1c(C)cccc1C [Lidocaine],57.4,88.1,84.1,94
O=C(Nc1ccccc1)c1ccccc1O [Salicylanilide],146,127,63.5,162
COc1cc(C2Oc3cc(C4Oc5cc(O)cc(O)c5C(=O)C4O)ccc3OC2CO)ccc1O (stereo unspecified) [Silymarin],82.9,82.7,113,106
O=C(O)CC(O)CC(O)C=Cc1c(C2CC2)nc2ccccc2c1-c1ccc(F)cc1 (stereo unspecified) [Pitavastatin],58.8,35.3,35.6,66.3
CNC(=O)CN(CCN(CCN(CC(=O)[O-])CC(=O)NC)CC(=O)[O-])CC(=O)[O-].O.[Gd+3] [Gadodiamide],64.6,87.5,95.2,86.1
COc1ccc(C2(C#N)CCC(C(=O)O)CC2)cc1OC1CCCC1 (stereo unspecified) [Cilomilast],72.3,99.7,114,119
CN1CCN(c2c(F)cc3c(=O)c(C(=O)O)cn4c3c2OCN4C)CC1 [Marbofloxacin],95,117,88.6,148
CO[C@H]1/C=C/O[C@@]2(C)Oc3c(C)c(O)c4c(c3C2=O)C2=NC3(CCN(CC(C)C)CC3)NC2=C(NC(=O)/C(C)=C\C=C\[C@H](C)[C@H](O)[C@@H](C)[C@@H](O)[C@@H](C)[C@H](OC(C)=O)[C@@H]1C)C4=O [Rifabutin],93.4,81.4,104,126
CC(CN(C)C)CN1c2ccccc2CCc2ccccc21.O=C(O)/C=C\C(=O)O (stereo unspecified) [Trimipramine (maleate)],110,102,120,91.6
CCOC(=O)c1ccc(OC(=O)CCCCCN=C(N)N)cc1.CS(=O)(=O)O [Gabexate mesylate],108,81,100,136
Cl.OC(c1cc(C(F)(F)F)nc2c(C(F)(F)F)cccc12)C1CCCCN1 (stereo unspecified) [Mefloquine hydrochloride],86.5,30.4,46.9,85.2
CO[C@H]1C[C@@H]2CC[C@@H](C)[C@@](O)(O2)C(=O)C(=O)N2CCCC[C@H]2C(=O)O[C@H]([C@@H](C)C[C@@H]2CC[C@@H](OCCO)[C@H](OC)C2)CC(=O)[C@H](C)/C=C(\C)[C@@H](O)[C@@H](OC)C(=O)[C@H](C)C[C@H](C)/C=C/C=C/C=C/1C [Everolimus (RAD001)],114,67.3,69.7,91
Cl.NC(N)=NC(=O)c1nc(Cl)c(N)nc1N.O.O [Amiloride HCl dihydrate],66,71.2,97.4,128
Cl.Clc1cccc(Cl)c1NC1=NCCN1 [Clonidine HCl],96.9,109,109,99.3
CCn1cc(C(=O)O)c(=O)c2cc(F)c(N3CCN(C)CC3)cc21.CS(=O)(=O)O [Pefloxacin Mesylate],74.7,68.3,83,117
CC(C)(C)c1cc(C(C)(C)C)c(NC(=O)c2c[nH]c3ccccc3c2=O)cc1O [Ivacaftor (VX-770)],110,128,61.4,159
COc1cc(C(=O)NS(=O)(=O)c2ccccc2C)ccc1Cc1cn(C)c2ccc(NC(=O)OC3CCCC3)cc12 [Zafirlukast],93.4,109,93,88
O=C1CCc2cc(OCCCCc3nnnn3C3CCCCC3)ccc2N1 [Cilostazol],90.9,72.6,86,113
COc1ccccc1Oc1c(NS(=O)(=O)c2ccc(C(C)(C)C)cc2)nc(-c2ncccn2)nc1OCCO [Bosentan],99.3,116,112,88.5
CC(=O)OC1(C(C)=O)CCC2C3CCC4=CC(=O)CCC4=C3C(c3ccc(N(C)C)cc3)CC21C (stereo unspecified) [Ulipristal acetate],78.6,78.4,97.3,106
Cl.N#Cc1ccc2[nH]cc(CCCCN3CCN(c4ccc5oc(C(N)=O)cc5c4)CC3)c2c1 [Vilazodone Hydrochloride],103,102,95.1,120
